Test results taken from US20260029399A1.

Legend:
[1] = target: murine CD3 on TCR-transduced 58α-β- mouse T hybridoma cells (murine) (UniProt P22646); experiment: cell-based or functional assay
[2] = target: murine TCR constant region on TCR-transduced 58α-β- mouse T hybridoma cells (murine) (UniProt A2KF29); experiment: cell-based or functional assay

Substance: mouse anti-CD3 Epsilon Clone 145-2C11 Fab antibody (light chain-P2A-heavy chain, PDGFR transmembrane
- transduction of 58α-β- mouse T hybridoma cells [1]: 12.8%

Substance: mouse anti-TCR Beta Clone H57-597 Fab antibody (light chain-P2A-heavy chain, PDGFR transmembrane dom
- transduction of 58α-β- mouse T hybridoma cells [2]: 11%
